According to article PMC5892938:
The other results are listed elsewhere or left out. At the low end of the ranking the order means little.

Each sequence was assayed against GST-SBP-SLBP (stem-loop binding protein) (UniProt Q14493) (assay: targeted RNA Bind-n-Seq). Settings: RBNS binding buffer: 25 mM Tris pH 7.5, 150 mM KCl, 3 mM MgCl2, 0.1% Tween, 0.5 mg/mL BSA, 1 mM DTT; 27 nM protein, 750 pM RNA pool; temperature not stated; high values mean tight binding.
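Also: DESeq read counts versus GST-SBP nonspecific binding control pulldown.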

Sequence | binding signal (log2 fold change)
GGUCACGUCUCAAUCAACUCAUUCUCCAGGGAAACCCCUGGCAAUCUCAACAGCUCGCAGUCAAG | 0.0751
GGUCACGUCUCAAUCAACUCAGUCUCAGGAGUUUUCUCCUGCAUAGUCAACAGCUCGCAGUCAAG | -0.097
GGUCACGUCUCAAUCAACUCAUUCGAGGGGGGGAAAACCCCUUUACCCUCUCCAUCAACAGCUCGCAGUCAAG | -0.345
GGUCACGUCUCAAUCAACUCAAUUUCAGGAGUUUCCUCCUGCAUACUCAACAGCUCGCAGUCAAG | -0.0222
GGUCACGUCUCAAUCAACUCUUUCCCAGGAGUUUUCUCCUGUAAAUUCAACAGCUCGCAGUCAAG | -0.00663
GGUCACGUCUCAAUCAACUCUAUUCCAGGAGUUUCCUCCUGCUAUUUCAACAGCUCGCAGUCAAG | -0.0335
GGUCACGUCUCAAUCAACUCUAUCCCCAGGGAAAGCCCUGGUUUAUUCAACAGCUCGCAGUCAAG | -0.203
GGUCACGUCUCAAUCAACUCAAUUUCAGGAGUUUACUCCUGCAAACUCAACAGCUCGCAGUCAAG | -0.0789
GGUCACGUCUCAAUCAACUCAUCAGAGGGGGGGAAAACCCCUUUGCCCUCCAUAUCAACAGCUCGCAGUCAAG | -0.29
GGUCACGUCUCAAUCAACUCUACUUCAGGAGUUUCCUCCUGCUAACUCAACAGCUCGCAGUCAAG | -0.00461
GGUCACGUCUCAAUCAACUCAAUCCCCAGGGAAAUCCCUGGCAAACUCAACAGCUCGCAGUCAAG | 0.0306
GGUCACGUCUCAAUCAACUCAUUUCCAGGAGUUUGCUCCUGUAUACUCAACAGCUCGCAGUCAAG | -0.178
GGUCACGUCUCAAUCAACUCAUCUCCCAGGGAAACCCCUGGUUUUUUCAACAGCUCGCAGUCAAG | -0.0747
GGUCACGUCUCAAUCAACUCUUCUUCAGGAGUUUCCUCCUGUAUACUCAACAGCUCGCAGUCAAG | -0.0691
GGUCACGUCUCAAUCAACUCAUCUCCAGGAGUUUUCUCCUGUUAUCUCAACAGCUCGCAGUCAAG | 0.0608
GGUCACGUCUCAAUCAACUCAUACGAGGGGGGGAAAACCCCUUUACCCUCAACUUCAACAGCUCGCAGUCAAG | -0.111
GGUCACGUCUCAAUCAACUCUAUCUCAGGAGUUUUCUCCUGCUAAUUCAACAGCUCGCAGUCAAG | 0.0769
GGUCACGUCUCAAUCAACUCUUUCCCAGGAGUUUUCUCCUGCUAAUUCAACAGCUCGCAGUCAAG | -0.0512
GGUCACGUCUCAAUCAACUCAAUCCCCAGGGAAAUCCCUGGCUAUCUCAACAGCUCGCAGUCAAG | 0.242
GGUCACGUCUCAAUCAACUCUAUUCCCAGGGAAAACCCUGGUAUAUUCAACAGCUCGCAGUCAAG | -0.105
GGUCACGUCUCAAUCAACUCAAGUCCAGGAGUUUCCUCCUGCAAUGUCAACAGCUCGCAGUCAAG | 0.172
